In all, about 110,000 compounds were measured (“z-score”: median about -0.1, highest 2% from about 2 on). The list shows a part of the results. Calls of active or inactive are those of the source.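 Rule for the calls: active = z-score in the third read window above 3 or below -3; inactive = the rest.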
target: Metabotropic glutamate receptor 8 (Rattus norvegicus) (UniProt P70579); experiment: rat mGluR8 modulators via GIRK flux, primary screen, cell-based, thallium flux, HTS (AID 488969); settings: HEK293 rat mGluR8, GIRK (G protein-gated inwardly rectifying potassium channel) thallium flux, FluoZin2; at 10 µM; stronger effect = higher value; submaximal glutamate (EC20) added with thallium
UniProt P70579, sequence (P70579 whole entry, looked up): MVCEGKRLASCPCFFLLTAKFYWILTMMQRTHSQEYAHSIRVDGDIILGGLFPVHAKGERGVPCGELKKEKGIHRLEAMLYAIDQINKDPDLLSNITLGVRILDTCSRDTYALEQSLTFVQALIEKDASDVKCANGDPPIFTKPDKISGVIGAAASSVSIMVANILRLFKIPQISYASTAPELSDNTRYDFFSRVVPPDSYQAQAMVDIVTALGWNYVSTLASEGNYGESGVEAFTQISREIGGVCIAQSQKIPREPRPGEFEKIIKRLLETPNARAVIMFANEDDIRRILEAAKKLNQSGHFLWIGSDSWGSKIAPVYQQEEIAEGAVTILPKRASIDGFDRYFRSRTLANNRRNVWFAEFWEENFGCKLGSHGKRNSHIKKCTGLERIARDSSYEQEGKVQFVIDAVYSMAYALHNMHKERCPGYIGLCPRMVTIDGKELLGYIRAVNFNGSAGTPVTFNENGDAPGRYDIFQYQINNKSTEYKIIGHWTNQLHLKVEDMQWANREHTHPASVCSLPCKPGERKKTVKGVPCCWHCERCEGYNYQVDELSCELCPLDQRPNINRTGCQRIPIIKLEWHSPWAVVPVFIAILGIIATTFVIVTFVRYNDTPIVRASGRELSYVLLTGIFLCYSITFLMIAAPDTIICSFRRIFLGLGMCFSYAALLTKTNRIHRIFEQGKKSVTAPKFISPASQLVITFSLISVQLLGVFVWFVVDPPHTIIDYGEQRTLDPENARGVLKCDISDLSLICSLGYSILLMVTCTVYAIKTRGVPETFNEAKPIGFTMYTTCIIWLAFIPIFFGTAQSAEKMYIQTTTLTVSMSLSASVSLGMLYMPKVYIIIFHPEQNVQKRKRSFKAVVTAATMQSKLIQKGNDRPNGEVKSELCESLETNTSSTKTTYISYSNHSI

SMILES	z-score
Cc1ccc(-c2c(C)n([O-])c3c([n+]2=O)CCC3)cc1	-0.263
Cn1ncc(Cl)c1C(=O)N1CCCc2ccccc21	0.0572
COC(=O)c1cccc(NC(=O)/C=C/c2cccc([N+](=O)[O-])c2)c1	-0.164
CN1CCc2nc3sc(C(=O)C45CC6CC(CC(C6)C4)C5)c(N)c3cc2C1	-0.176
O=[N+]([O-])c1cc2c(cc1/C=N/Nc1nc(N3CCCC3)nc(N3CCCC3)n1)OCO2	-0.208
CC(=O)N1N=C(c2ccc(C)o2)CC1c1ccc(Br)cc1 (stereo not given)	-0.469
Cc1ccc(C(=O)Nc2ccccc2C(=O)N2CCOCC2)cc1[N+](=O)[O-]	-0.149
CCN(CC)C(=O)c1cc2cc(Br)ccc2oc1=O	0.312
CCC(=O)Nc1ccc2c(c1)C(=O)N(C1CCCCC1)C2=O	-0.167
Cc1ccccc1C(=O)NNC(=O)Cc1ccccc1	-0.146
CN(C)c1nn(C(=O)Nc2ccc(Cl)cc2Cl)cc1-c1ccccc1	0.096
O=C(Nc1ccc2cn[nH]c2c1)c1ccc(Cl)c(S(=O)(=O)N2CCOCC2)c1	-0.292
CCNS(=O)(=O)c1ccc(NC(=O)Nc2cccc(C(F)(F)F)c2)cc1	-0.286
Cc1ccc(SCC2(O)CCN(C(=O)c3ccc(Cl)cc3)CC2)cc1	-0.328
Cc1oc(-c2ccccc2Cl)nc1CS(=O)CC(=O)NCc1cccs1 (stereo not given)	-1.02
O=C(Nc1ccccc1Cl)O/N=C(/c1ccccc1)c1ccccn1	-0.521
Cc1cc2c(C)nc(-c3ccccc3)nc2o1	0.681
CCc1nc(-n2[nH]c(=O)c3ccccc3c2=O)c2c3c(sc2n1)CCCC3	0.0357
CCOc1cc(/C=N/NC(=O)Cn2nc([N+](=O)[O-])cc2C)ccc1OCc1ccc(F)cc1	-0.177
COc1ccc(CC(=O)N2CCN(c3ccccn3)CC2)cc1OC	0.442
COc1ccc(C(=O)Nc2ccc(Cl)cc2C(=O)NCCN2CCOCC2)cc1	0.417
COc1cc(Cl)ccc1NC(=O)COc1ccccc1C(=O)N1CCN(c2ccc(O)cc2)CC1	0.132
COc1ccccc1CO/N=C/NC(=O)c1c(OC)ccnc1Oc1ccc(F)cc1	-0.607
N#C/C(=N\Nc1cccc2ccccc12)c1nnc2n1CCCCC2	-0.102

SMILES	z-score
Cc1nn(Cc2ccc(Cl)cc2)c(C)c1NC(=O)CSc1n[nH]c(C)c1[N+](=O)[O-]	-0.196
O=[N+]([O-])c1cccc(Cl)c1NCCNS(=O)(=O)c1ccc(Cl)cc1	-0.175
O=C(CN1CCCCC1)N1c2ccccc2Oc2ccccc21	-0.0708
CC(OC(=O)c1ccc2ccccc2n1)C(=O)Nc1ccc(N2CCOCC2)cc1 (stereo not given)	0.981
COC(CNC(=O)Cn1ncc2ccsc2c1=O)OC	-0.112
CCOC(=O)N1CCN(C(=O)c2ccc3c(c2)ncn3C2CCCC2)CC1	-0.295
O=c1ccc(/C=C/c2ccccc2)nn1Cc1ccccc1Cl	-0.137
COc1cc(NC(=O)CSc2nnnn2-c2ccccc2)cc(OC)c1OC	-0.12
CCOC(=O)c1nn(-c2ccc(C)c(C)c2)cc1O	-0.275
CC1(C)OC(=O)C(=CNc2ccccc2F)C(=O)O1	0.41
COC(=O)C/C(C)=N/Nc1ccc(S(=O)(=O)N2CCCC2)cc1[N+](=O)[O-]	-0.198
Cn1c(=N)n(CC(O)c2cccc3ccccc23)c2ccccc21 (stereo not given)	1.78
CN(C)Cc1cc(C(C)(C)C)c(O)c(C(C)(C)C)c1	-0.0863
CCCCn1c(N)c(N(CC)C(=O)CCc2ccccc2)c(=O)[nH]c1=O	-0.0882
Cc1ccc(NC(=O)N2CCC(C(N)=O)CC2)cc1	0.0373
Cc1ccc(NC(=S)NC2CC3CCC(C2)N3Cc2ccco2)cc1C (stereo not given)	0.268
O=C(CSc1nc2ncccc2[nH]1)Nc1ccc2c(c1)OCCO2	0.926
COc1cccc(/C(C)=N/Nc2ncc(Cl)cc2Cl)c1	-0.259
CCN(CC)C(=O)c1ccc(Nc2nnc(C)c3ccccc23)cc1	-0.0372
Cc1cccc(NC(=O)CN2C(=S)NC(C)(C)CC2C)c1C (stereo not given)	0.55
CSc1nnc(C)c(=O)n1COC(=O)COc1ccccc1C	0.943
COc1cccc(C2=NOC(C(=O)Nc3cccc(C(C)=O)c3)C2)c1OC (stereo not given)	0.301
COc1cc(NS(=O)(=O)c2ccc(OC)c(C)c2C)c(OC)cc1Cl	-0.393
COc1ccccc1NC(=O)c1ccc(S(=O)(=O)N2CCOCC2)cc1	0.986

SMILES	z-score
COC(=O)c1c(NC(=O)Cn2cc([N+](=O)[O-])cn2)sc2c1CCC2	-0.16
CNc1nc(-c2ccccc2)nc(-c2ccccc2)c1C#N	-0.452
Cc1ccc(NC(=S)NC(=O)c2ccc(-c3ccc(Cl)cc3)o2)c(O)c1	1.69
Cc1ccccc1N=C(NOCc1ccccc1)c1nonc1N	-0.423
CCCCn1c(SCC(=O)NCc2ccco2)nc2ccccc2c1=O	active: 6.36
COc1cc2c(cc1OC)C(CC#N)=NC(C)(C)C2	0.431
CCOC(=O)c1c(NC(=O)CSc2nnc(-c3cccnc3)o2)sc(C(C)=O)c1C	-2.08
Cc1cc(C)cc(N(CCC(=O)Nc2nnc(C)s2)S(=O)(=O)c2ccc(Cl)cc2)c1	-0.238
CN(C1CCCCC1)S(=O)(=O)c1ccccc1	-0.282
COc1nc(-c2ccccc2)ccc1-c1noc(-c2ccco2)n1	0.332
NC(=O)c1ccc(C(F)(F)F)n(Cc2cccc(Cl)c2)c1=O	-0.279
CC(Sc1nc(N)c2c3c(sc2n1)CSC(C)(C)C3)C(=O)Nc1ccccc1 (stereo not given)	-0.183
COC(=O)c1ccc(Oc2ccc(C(C)(C)C)cc2)c([N+](=O)[O-])c1	-0.201
Cc1ccccc1OCC(=O)NCC1CCCO1 (stereo not given)	-0.262
CC1C/C(=C/c2cccn2C)C(=O)/C(=C/c2cccn2C)C1 (stereo not given)	-0.236
COC(=O)c1coc(-c2ccc(OC)cc2)c1C(=O)OC	1.66
CCOC(=O)Cc1csc(NC(=O)NC2(C(F)(F)F)Oc3cc(Cl)c(Cl)cc3O2)n1	-0.159
CC1CCCCN1S(=O)(=O)c1ccc2c(c1)oc(=O)n2CC(=O)O (stereo not given)	-0.535
CCCC(C)NC(=O)c1cc(C(=O)OC)cc([N+](=O)[O-])c1 (stereo not given)	0.235
CSc1nc2ccccc2cc1/C=C(\C#N)c1cccc(C)c1	active: 3.99
CCC(C)(C)n1nnnc1C(C(C)C)N(Cc1ccco1)Cc1cc2cc3c(cc2[nH]c1=O)OCO3 (stereo not given)	-0.127
O=C(NC1CCCCC1)NC1CCN(C(=S)NCc2ccco2)CC1	-0.105
